SMILES strings stand for the structures. The campaign covered roughly 52,000 compounds. About 1,700 (3.3%) were called active. Rule as the data show it: active = survival mostly below about 52% (no sharp cut-off); inactive = mostly above about 56%. The list shows a part of the results.

In this experiment the test system is Wild type. Description: growth inhibition of S. aureus wild type versus tarO mutant, primary screen, teichoic acid synthesis inhibitors, RN4220, OD600 (AID 463173). Particulars: S. aureus RN4220 wild type/DeltatarO growth, OD600, 18 h, hits give low values, screened at 18.75 µg/mL (by protocol).
Take `CC(CCC(=O)O)C1CCC2C3C(O)CC4CC(O)CCC4(C)C3CC(O)C12C` (stereo not drawn): the survival was inactive: 106%. The same measure for `CCCCc1nn2c(=O)cc(COC(=O)c3ccccc3NC(=O)c3cccc(C)c3)nc2s1`: inactive: 55%. As for `Cc1cccc(NC(=O)c2c(C)oc3ncnc(N4CCCCC4)c23)c1C`, the figure is inactive: 124%; as for `OCC(O)CN(c1ccccc1)c1ccccc1` (stereo not drawn), inactive: 113%; as for `CC(=O)Nc1cccc(-c2cn3cccnc3n2)c1`, inactive: 73%. As for `COc1ccc2nc(NC(=O)c3cc(=O)c4cc(C)c(C)cc4o3)sc2c1`, the figure is inactive: 81%; as for `Cc1nc(-c2ccc(F)cc2)sc1CCNC(=O)c1ccc(C(C)(C)C)cc1`, inactive: 73%. Turning to `Cc1ccc(Cl)cc1NS(=O)(=O)c1ccc(N2CCCCS2(=O)=O)cc1`, the survival was inactive: 124%.

For the molecule `Cc1ccc(C(=O)NCC(c2cccnc2)N2CCc3ccccc3C2)cc1C` (stereo not drawn), the survival was inactive: 84%. As for `CCOc1ccc(C(=O)c2c(N)c(-c3nc(-c4ccc(OCC)cc4)cs3)c3ccccn23)cc1`, the figure is inactive: 103%.

`Nc1c(C(=O)c2ccccc2)sc(Nc2ccc(Cl)c(Cl)c2)c1C(=O)Nc1ccccc1`: the survival is inactive: 75%.

For `Cc1ccc2c(c1)N(C(=O)N1CCC(C(=O)NCc3ccccc3F)CC1)CC(C)O2` (stereo not drawn), the survival was inactive: 101%. As for `Cc1cccc(NC(=O)c2sc(-n3nc(C)c(CCC(C)C)c3C)nc2C)c1`, the figure is inactive: 89%. The same measure for `CCOC(=O)CSc1nc2c(sc3ccccc32)c(=O)n1Cc1ccc(OC)cc1`: inactive: 73%; for `N#Cc1ccccc1OCC(=O)N1CCN(c2ccccc2F)CC1`: inactive: 116%. Regarding `Cc1cc(=O)[nH]c(Nc2nc3ccccc3[nH]2)n1`, the survival was inactive: 118%. The same measure for `COc1cc2ccccc2cc1C(=O)Nc1ccc2oc(-c3cccc(C)c3)nc2c1`: active: 6%; for `COc1ccc(CCNc2nc3cc(OC)c(OC)cc3c3nc(-c4cccnc4)nn23)cc1OC`: inactive: 121%; for `COc1ccc(OC)c(NC(=O)N2CCN(Cc3nc4ccc(C)cc4o3)CC2)c1`: inactive: 71%. The same measure for `O=S(=O)(c1ccccc1)c1nc(-c2ccccc2F)oc1N1CCOCC1`: inactive: 77%. The same measure for `COc1ccc(-c2cn3c(n2)sc2cc(C(=O)Nc4ccc(C)cc4C)ccc23)cc1`: inactive: 87%; for `C=CCNC(=O)Nc1c[nH]c2ccccc2c1=O`: inactive: 111%; for `COc1ccc(-n2c3c(cc(-c4nc(-c5ccc(Cl)cc5)cs4)c2=O)C(=O)CC(C)(C)C3)cc1Cl`: inactive: 72%. On to `CCOc1ccc(NC(=O)CCSc2nc(-c3ccc4c(c3)OCO4)cc(C(F)(F)F)n2)cc1`, for which the survival was inactive: 72%.

Regarding `O=S(=O)(NCCN1CCOCC1)c1cccc(C(F)(F)F)c1`, the survival was inactive: 105%.

For `CCN1C(=O)c2ccccc2Sc2ccc(NC(=O)c3ccc(C#N)cc3)cc21`, the survival is inactive: 73%. As for `COC(=O)Nc1ccc2c(c1)N(C(=O)CCN1CCOCC1)c1ccccc1S2`, the figure is inactive: 106%.

For `Cc1ccccc1NCc1nc2ccccc2n1CCOc1ccccc1`, the survival is active: -20%. The same measure for `CN(C(=O)Cn1nnc(-c2ccc(S(C)(=O)=O)cc2)n1)c1ccccc1`: inactive: 74%; for `Cc1c(C(=O)N(C)C)sc2c1c(=O)n(-c1ccccc1C(F)(F)F)c(=O)n2Cc1cccc(F)c1`: inactive: 70%. As to `COc1ccc(C(=O)Nc2nc3c(s2)Cc2cc(OC)ccc2-3)cc1`, the survival was inactive: 72%. The same measure for `CC(C)C(c1nnnn1C1CCCC1)N1CCOCC1` (stereo not drawn): inactive: 98%; for `COc1ccc(NC(=O)CSc2oc(-c3ccco3)nc2S(=O)(=O)c2ccccc2)c(OC)c1`: inactive: 135%; for `O=C(Nc1ccc(Cl)cc1)c1cc(S(=O)(=O)NC2CCCCCC2)ccc1F`: inactive: 97%. The same measure for `CCc1ccc(S(=O)(=O)c2nnn3c2nc(NCc2ccccc2)c2cc(Cl)ccc23)cc1`: inactive: 103%; for `CCN(CC)S(=O)(=O)c1cccc(C(=O)NCc2ccccc2)c1`: inactive: 101%. As for `CCOc1ccc(C(=O)Nc2ccc3c(c2)OCCO3)cc1Br`, the figure is inactive: 64%. Take `CCCNC(=O)C(Cc1ccccc1)NS(=O)(=O)c1ccc2c(c1)c(=O)n(C)c(=O)n2C` (stereo not drawn): the survival is inactive: 79%. For `COc1ccccc1-c1nc2cc(NC(=O)c3ccccc3Cl)ccc2o1`, the survival was inactive: 68%.

As to `O=C(CN1CCN(Cc2ccccc2Cl)C1=O)NCCc1ccc(Cl)cc1`, the survival is inactive: 70%.

As for `COc1cc(NS(=O)(=O)c2ccc(-c3cc(C)no3)cc2)cc(OC)c1`, the survival was inactive: 124%. As for `Cc1ccc(-c2csc3ncnc(Nc4ccc(C(=O)O)cc4)c23)cc1`, the figure is inactive: 129%; as for `COc1ccc2c(c1)CCc1c(C(=O)Nc3ccc(OC)cc3OC)noc1-2`, inactive: 143%; as for `COc1ccccc1NC(=O)c1sc2nc3n(c(=O)c2c1C)N=C(c1cccc(Br)c1)CS3`, inactive: 69%. As for `CCc1ccc(-n2c(SCC(=O)NCC(C)C)nnc2-c2ccncc2)cc1`, the figure is inactive: 100%. The same measure for `Cc1nc(S(=O)(=O)N2CCN(c3ccccc3F)CC2)cn1C`: inactive: 121%; for `Cn1c(C(=O)OCC(=O)NCc2cccs2)cc2sccc21`: inactive: 111%.

In the case of `COc1ccc(Cn2c(C(=O)O)c(CNC3CCCCC3)c3ccc(C)cc32)cc1`, the survival is inactive: 56%. The same measure for `COC(=O)c1ccc2c(c1)N(Cc1ccccc1)C(=O)c1ccccc1S2(=O)=O`: inactive: 93%. As for `COc1ccc(Cl)cc1NC(=O)CN1Cc2ccccc2C1=O`, the figure is inactive: 73%; as for `O=C(O)c1ccc(NC(=O)c2ccc(Br)c(S(=O)(=O)N3CCCC3)c2)cc1`, inactive: 70%. The same measure for `CCOc1ccc(NC(=O)Cc2c[nH]c3ccccc23)cc1`: inactive: 71%. In the case of `Nc1c(-c2nc(-c3ccc4c(c3)OCO4)cs2)c2ccccn2c1C(=O)c1ccc(Cl)cc1`, the survival is inactive: 121%. Consider `CCCC12CN3CC(C)(CN(C1)C3c1ccc(OCc3ccccc3)cc1)C2=O` (stereo not drawn), for which the survival is inactive: 94%.

For `Cc1cccc(CNC(=O)CN2C(=O)CCn3nc(-c4cn(C)c5ccccc45)cc32)c1`, the survival is inactive: 123%. Turning to `Cc1ccc(SCc2nc(-c3ccc(C(=O)NCC(C)c4ccccc4)cc3)oc2C)cc1` (stereo not drawn), the survival was inactive: 82%. As for `CCN(c1ccccc1)S(=O)(=O)c1ccc(NC(=O)c2nc(SC(C)C)ncc2Cl)cc1`, the figure is inactive: 81%; as for `CCOC(=O)c1cnc2ccc(OCC)cc2c1Nc1ccc(OCc2ccccc2Cl)cc1`, active: 5%.

The values are drawn from PubChem BioAssay AID463173 (ICCB-Longwood Screening Facility, Harvard Medical School, 2010).
